# Measured values reported in publication PMC4336329 (PLoS ONE, 2015).
# Hit rate of the full screen: of about 310,000 compounds, about 14,000 (4.5%) showed an effect of 50% or more. Effects have a minus sign here. Some of the results follow.
# Molecular target: human ether-à-go-go-related gene (hERG) potassium channel (human, UniProt Q12809)
# Test: primary screen, population patch clamp on CHO cells stably expressing hERG
# 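Further: peak tail current of the secondary pulse compared with the same well before compound.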
# Chain of human ether-à-go-go-related gene (hERG) potassium channel (Q12809 whole entry, looked up): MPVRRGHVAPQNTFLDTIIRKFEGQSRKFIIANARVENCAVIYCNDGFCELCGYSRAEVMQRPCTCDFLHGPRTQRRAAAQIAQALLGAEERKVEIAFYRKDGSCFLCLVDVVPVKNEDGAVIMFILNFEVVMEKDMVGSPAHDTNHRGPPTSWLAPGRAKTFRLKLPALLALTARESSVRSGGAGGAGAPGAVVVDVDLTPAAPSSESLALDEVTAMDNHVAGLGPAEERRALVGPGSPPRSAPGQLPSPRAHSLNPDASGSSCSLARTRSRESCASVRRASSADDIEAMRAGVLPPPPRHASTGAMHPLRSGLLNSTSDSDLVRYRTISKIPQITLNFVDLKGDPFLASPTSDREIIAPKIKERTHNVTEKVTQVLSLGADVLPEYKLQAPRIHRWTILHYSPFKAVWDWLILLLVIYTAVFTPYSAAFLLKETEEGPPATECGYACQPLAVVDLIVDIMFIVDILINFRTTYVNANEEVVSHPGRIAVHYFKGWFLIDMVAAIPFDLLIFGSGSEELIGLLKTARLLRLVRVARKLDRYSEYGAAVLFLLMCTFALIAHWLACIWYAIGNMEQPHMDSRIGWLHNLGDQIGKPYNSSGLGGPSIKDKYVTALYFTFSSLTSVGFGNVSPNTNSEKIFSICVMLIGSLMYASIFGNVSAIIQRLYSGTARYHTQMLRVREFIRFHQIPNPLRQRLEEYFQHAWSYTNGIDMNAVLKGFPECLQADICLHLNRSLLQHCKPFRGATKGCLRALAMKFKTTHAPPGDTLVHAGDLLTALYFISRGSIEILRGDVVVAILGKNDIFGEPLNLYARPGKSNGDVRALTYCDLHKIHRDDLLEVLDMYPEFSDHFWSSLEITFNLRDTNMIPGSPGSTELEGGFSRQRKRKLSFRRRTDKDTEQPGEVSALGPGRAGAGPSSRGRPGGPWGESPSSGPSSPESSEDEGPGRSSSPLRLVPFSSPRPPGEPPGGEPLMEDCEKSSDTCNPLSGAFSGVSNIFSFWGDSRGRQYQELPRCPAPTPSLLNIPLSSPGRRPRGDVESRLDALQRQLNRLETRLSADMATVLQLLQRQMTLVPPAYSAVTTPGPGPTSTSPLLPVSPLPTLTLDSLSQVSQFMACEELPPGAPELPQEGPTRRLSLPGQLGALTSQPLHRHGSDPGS
row,Compound,"hERG current change (%, negative = inhibition) at 10uM"
1,CC1CCCCN1Cc1c[nH]c2ccccc12 (stereo not drawn),-8.88%
2,CCc1ccc(NS(=O)(=O)c2ccc3[nH]c(=O)[nH]c3c2)cc1,12.1%
3,COc1cccc(CNS(=O)(=O)/C=C/c2ccc(OC)c(OC)c2)c1,3.45%
4,CCCc1c(NC(=O)Nc2ccc(Cl)cc2Cl)cnn1-c1ccccc1,18.6%
5,COc1cccc(CN2CCNC(=O)C2CC(=O)N(C)C2CCCCC2)c1OC (stereo not drawn),14.1%
6,CC(C)N=C1SCC(C)(/C=N/O)S1 (stereo not drawn),-9.68%
7,CC1=NNC(=O)C1CCC(=O)N/N=C/c1ccc(Cl)cc1Cl (stereo not drawn),6.87%
8,C=C(C)Cn1c(N)cc(=O)nc1SCC(=O)Nc1cccc(C(F)(F)F)c1,11.9%
9,CCNC(=O)Nc1ccc(-n2nc(C)c(C(=O)OCC)c2C)nc1,20.7%
10,CCCC(CCC)n1[nH]c(=O)c2c(C)cc(C)nc21,1.88%
11,Cc1cc(NC(=O)COC(=O)C(Cc2ccccc2)NC(=O)c2ccco2)no1 (stereo not drawn),3.3%
12,CCCCOc1c(Br)cc(/C=N/O)cc1OCC,7.18%
13,O=S(=O)(c1ccc2ccccc2c1)N(CC(O)COCc1ccco1)c1ccccc1 (stereo not drawn),-26%
14,O=C(NNC(=O)C1CCN(S(=O)(=O)c2ccccc2)CC1)c1ccccc1O,-29.6%
15,Cn1ccsc1=NC(=O)c1ccc(=O)[nH]c1,11.9%
16,O=C(O)c1sccc1Oc1ccc(NS(=O)(=O)c2cccc(F)c2)cc1,18.4%
17,O=C(CCc1ccc(S(=O)(=O)N2CCOCC2)cc1)NCCc1ccccn1,-5.77%
18,COc1ccc(C2C3=C(CC(C)(C)CC3=O)Oc3ncn(Cc4ccccc4)c(=N)c32)cc1 (stereo not drawn),-55.5%
19,CN1CC(c2ccccc2)Oc2ccccc2C1=S (stereo not drawn),-0.674%

row,Compound,"hERG current change (%, negative = inhibition) at 10uM"
1,S=c1nc(-c2ccccc2)[nH]c2ccccc12,21.6%
2,CCCCOc1ccc(/C=C/C(=O)N(CC)CC(=O)Nc2ccc3c(c2)OCCO3)cc1OC,-28.9%
3,COc1ccc(-n2nc(C(=O)NCC(=O)NC(C)C)c3ccccc3c2=O)cc1Cl,4.05%
4,CCCCn1nc(C(=O)NCC2COc3ccccc3O2)c2ccccc2c1=O (stereo not drawn),-49.1%
5,CC(C)(C)c1cc(C(=O)NNS(=O)(=O)c2ccccc2)n[nH]1,9.31%
6,O=C(Nc1ccccc1)C1CCN(C(=O)c2ccc([N+](=O)[O-])cc2)CC1,-71.4%
7,COc1ccc(C(=O)NC=C2C(=O)OC(C)(C)OC2=O)cc1,4.18%
8,COC(=O)c1ccc(S(=O)(=O)NC(C)(C)C)n1C,15.7%
9,CCOc1ccc(NC(=O)Nc2nc3ccc(S(C)(=O)=O)cc3s2)cc1,16.6%
10,Cc1cccn2c(=O)c(C=O)c(N3CCCCCC3)nc12,-11.5%
11,COc1ccc(-c2oc3cccnc3c2/C=C/c2ccc(OC)c(OC)c2)cc1,23.5%
12,Cc1nc([N+](=O)[O-])cn1CC(=O)Nc1ccc(F)c(Cl)c1,25.4%
13,S=C(c1ccc[nH]1)N1CCOCC1,25.7%
14,COc1ccc(-n2c(Cc3cc(=O)[nH]c(=O)[nH]3)nnc2SCC(=O)N2CCC(C)CC2)cc1,5.03%
15,CC1CCCCC1NC(=O)CCn1c(=O)sc2ccccc21 (stereo not drawn),7.23%
16,CCOC(=O)c1cc(-c2ccccc2)n(CCC(=O)NC(C)CC)c1C (stereo not drawn),-12.5%
17,CC(C)(C)c1ccc(NC(=O)Cn2cnc3cc([N+](=O)[O-])ccc3c2=O)cc1,11.7%
18,Cc1cc2c(cc1S(=O)(=O)N1CCN(c3ccc(Cl)cc3)CC1)OCCN2C,6.05%
19,Cc1nc2c(=O)n(-c3ccc(F)cc3F)nc(C)c2s1,16.2%

row,Compound,"hERG current change (%, negative = inhibition) at 10uM"
1,Cn1c(N)c(C(=O)COC(=O)/C=C/c2ccc(S(=O)(=O)N3CCOCC3)cc2)c(=O)n(C)c1=O,-1.72%
2,CC(C)(C)OC(=O)NCCCCCc1nnc(SCc2cccc(F)c2)o1,-38.1%
3,CC(=O)Nc1ccc(NC(=O)Nc2cccc(Cl)c2)cc1,15.9%
4,CCNC(=S)N/N=C/c1sc(N2CCCCC2)nc1-c1cccs1,9.09%
5,O=C1C(O)CC2c3ccccc3CC3(CCCC3)N12 (stereo not drawn),6.83%
6,CCOC(=O)c1c(N)sc2c1CCN(CCc1ccccc1)C2,-28.6%
7,CCCNC(=O)C(Cc1cccc(C#N)c1)NC(=O)c1cccc([N+](=O)[O-])c1 (stereo not drawn),-10.2%
8,NC(=O)c1cc[n+](Cc2ccccc2Cl)cc1.[Br-],12.5%
9,Cn1c(/C=C/c2ccc(Cl)cc2)c([N+](=O)[O-])c(=O)n(C)c1=O,-44.8%
10,COCCN(C(=S)Nc1cccc(OC)c1)C(C)c1cccs1 (stereo not drawn),-8.4%
11,Cc1cc(N2CCCC2=O)c(N)cc1N,17.4%
12,CCOc1ccc(NS(=O)(=O)c2ccc(C(=O)NCC3(N4CCCCC4)CCCCC3)cc2)cc1,-11%
13,COCCCNC(=O)/C(C#N)=C/c1ccc(F)cc1,6.92%
14,CCOc1ccc(S(=O)(=O)N2CCOCC2)cc1NC(=O)CN1C(=O)NC2(CCCCC2)C1=O,-17.9%
15,COc1cc(NC(=O)N2CCNC2=O)cc(C(=O)Nc2cccc(C(F)(F)F)c2)c1,-7.85%
16,O=C(O)c1cc(-c2cccs2)nc2cc3c(cc12)OCCO3,-9.08%
17,CCOC(=O)c1cccc(C2=CC(=O)CC(C)(C)C2)c1,-33.9%
18,O=S(=O)([N-]c1nc2ccccc2nc1-n1cc[n+](Cc2ccccc2)c1)c1ccccc1,-1.68%
19,COc1cc(C(=O)NC(c2ccccc2)c2ccccc2)cc(Cl)c1OC,3.78%
